# Out of some 260,000 compounds screened, about 890 (0.34%) were called active. The inconclusive results got no clear call from the source; some entries with a clear call stand among them for comparison. The call rests on the fitted dose curve; in most records, active means well fitted activation curve with a large enough effect; inconclusive means small, poorly fitted or top-dose-only effect; inactive means no such curve, though single readings can be large or run the other way. Potencies of inconclusive entries are left out as doubtful fits.
# Target: Pyruvate kinase PKM (Homo sapiens) (UniProt P14618)
# Assay: qHTS Assay for Activators of Human Muscle isoform 2 Pyruvate Kinase; further: nearly all actives have a fitted effect of over 55% in size
# Settings: purified PKM2, Kinase-Glo ATP luminescence; Potency: activation; activation: at 57.5 µM (top of the series), 0% is enzyme alone, no compound
# From the text: NIH Chemical Genomics Center [NCGC] Matthew G. Vander Heiden, M.D., Ph.D. [Harvard Medical School, 77 Avenue Louis Pasteur, Boston, MA 02115] MLPCN Grant: 1 R03 MH085679-01 NCGC Assay Overview: Human pyruvate kinase muscle 2 (hPK-M2) enzyme was supplied as a highly purified (>95% pure) preparation from Harvard Medical School and assayed for its ability to generate ATP from ADP using phosphoenolpyruvate (PEP) as a substrate. ATP generation was detected in a coupled reaction by luciferase-mediated luminescence, an ATP-dependent process. […] The enzyme was assayed at an intermediate level of activity to screen for both inhibitors and activators.
# NCGC Assay Protocol Summary: Three uL of substrate mix (at r.t.) in assay buffer (50 mM Imidazole pH7.2, 50 mM KCl, 7 mM MgCl2, 0.01% Tween 20, 0.05% BSA) was dispensed into white solid bottom 1,536 well microtiter plates so that the final concentrations of substrates in the assay were 0.1 mM ADP and 0.5 mM PEP. 23 nL of compound were delivered by a pin tool and 1 uL of enzyme mix in assay buffer (4 degree Celsius) was added. Plates were incubated at room temperature for 1 hour. Two uL of detection mix (Kinase-Glo, Promega; at 4 degree Celsius protected from light) was added and luminescence read by a ViewLux (Perkin Elmer) at 5 second exposure/plate. Data were normalized to the uninhibited and AC100 inhibition (no enzyme). To monitor activation, the first column contained a titration of the activator, NCGC00031955-01 (16-point 1:2 dilutions in duplicate starting at 57 uM) and the first 16 rows of column 4 contained 57 uM of NCGC00031955-01.
# On the % scale 0 is the no-effect control and ±100 the full control effect; potency means the concentration at half of the fitted maximal effect; tags describe the fitted curve by direction and shape.
# Sequence of UniProt P14618 (P14618 whole entry, looked up, canonical isoform): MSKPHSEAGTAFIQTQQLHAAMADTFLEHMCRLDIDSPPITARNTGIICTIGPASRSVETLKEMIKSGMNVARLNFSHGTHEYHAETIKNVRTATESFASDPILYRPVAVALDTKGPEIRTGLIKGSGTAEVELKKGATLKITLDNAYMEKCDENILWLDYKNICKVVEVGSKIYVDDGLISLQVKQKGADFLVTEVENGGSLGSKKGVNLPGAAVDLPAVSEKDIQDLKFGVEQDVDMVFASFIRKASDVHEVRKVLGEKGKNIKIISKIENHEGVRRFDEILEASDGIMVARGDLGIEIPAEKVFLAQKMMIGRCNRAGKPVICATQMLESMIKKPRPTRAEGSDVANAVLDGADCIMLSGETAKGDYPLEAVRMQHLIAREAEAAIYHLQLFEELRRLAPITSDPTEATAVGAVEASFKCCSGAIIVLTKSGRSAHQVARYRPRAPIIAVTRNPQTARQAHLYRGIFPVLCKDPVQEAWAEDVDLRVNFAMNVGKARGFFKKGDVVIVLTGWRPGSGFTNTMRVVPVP
Structure (SMILES),Potency,activation
COc1ccccc1CNC(=O)COC(=O)[C@H](Cc1c[nH]c2ccccc12)NC(=O)c1cccs1,"inconclusive [rising, full curve, poor fit]",–
COc1ccccc1-n1cnc2cc(NS(=O)(=O)c3ccccc3)ccc21,"inconclusive [rising, partial curve]",–
CCc1nnc(NC(=O)CSc2nnc(-c3ccoc3C)n2-c2ccc(C)cc2)s1,"inconclusive [rising, full curve, poor fit]",–
COc1cccc(NC(=O)Cn2c(CCC(=O)O)ccc2-c2ccc(Cl)cc2)c1,–,inactive: -2.05%
Cc1cncn1CCc1nc2c3ccccc3nc(SCC(=O)Nc3cccc(Cl)c3)n2n1,"inconclusive [rising, single point]",–
CCC(OC(=O)c1nsc(Cl)c1Cl)C(=O)NC(C)(C)CC (stereo not given),"inconclusive [rising, single point]",–
Cn1c(=O)n(Cc2ccc(F)cc2)c(=O)c2c1nc1n2CCN1Cc1ccco1,"inconclusive [rising, single point]",–
CS(=O)(=O)Nc1ccc(C2=NN(C(=O)c3ccco3)C(c3ccccc3)C2)cc1 (stereo not given),active: 14.1 µM,–
CN(C)S(=O)(=O)c1ccc2[nH]cc(/C=C/c3nc4ccccc4c(=O)n3-c3ccccc3)c2c1,–,inactive: -6.45%
CCOC(=O)c1c(C2CC2)csc1NC(=O)COC(=O)c1cnc(Cl)c(Cl)c1,"inconclusive [rising, partial curve]",–
O=c1[nH]c2cc3c(cc2cc1CN(Cc1cccs1)Cc1nnnn1Cc1ccco1)OCCO3,"inconclusive [rising, single point]",–
Cn1c(=O)oc2cc(S(=O)(=O)Nc3ccc4c(c3)OCCO4)ccc21,"inconclusive [rising, single point]",–
COc1ccc(N2CCN(C(=O)c3ccc(NS(=O)(=O)c4cccc(F)c4)cc3)CC2)cc1,"inconclusive [rising, single point]",–
COc1cccc(C(=O)COC(=O)CCC(=O)NC2CCCCC2)c1,–,inactive: -3.05%
Cc1ccc(CCc2nnc(SCC(=O)Nc3ccccc3Cl)n2-c2ccccc2)o1,"inconclusive [rising, single point]",–
Cc1ccc(C(=O)COc2nc(C)nc3ccccc23)cc1,"inconclusive [rising, single point]",–
CC1=C(C)/C(=N/OC(=O)c2cccc([N+](=O)[O-])c2)C=CC1=O,–,inactive: -2.27%
CCOC(=O)C1=C(O)c2ccccc2C(=O)/C1=C\c1ccc(CC)cc1,"inconclusive [rising, full curve]",–
CCOC(=O)N1C(=O)[C@@](CC)(c2ccccc2)N1C(=O)OCC,–,inactive: -8.5%
COC(=O)CS(=O)(=O)c1nnc([C@H](Cc2ccccc2)NC(=O)OC(C)(C)C)o1,"inconclusive [rising, single point]",–
Cn1c(=O)[nH]c(=O)c2c1nc1n2CCCN1Cc1ccccc1,–,inactive: 7.66%
CCc1nnc(NC(=O)CSc2nnc3c(n2)[nH]c2ccccc23)s1,"inconclusive [rising, full curve, poor fit]",–
CCOC(=O)C(Cc1ccccc1)C(=O)Nc1nccs1 (stereo not given),"inconclusive [rising, single point]",–

Structure (SMILES),Potency,activation
O=S(=O)(c1ccc(F)cc1)N1CCN(S(=O)(=O)c2cc(F)ccc2F)CC1,"inconclusive [rising, full curve, poor fit]",–
COc1ccc(-c2csc(Nc3ccc(S(N)(=O)=O)cc3)n2)cc1OC,–,inactive: 2.6%
Cc1cc(C)c2cc(C(O)c3nnnn3Cc3ccccc3)c(=O)[nH]c2c1 (stereo not given),active: 12.6 µM,–
CCOC(=O)CNC(=O)c1cn(C)c(=O)c2cc(OC)c(OC)cc12,"inconclusive [rising, full curve, poor fit]",–
CC(C)c1ccc(N2C(=O)CC(Sc3nc4ccccc4o3)C2=O)cc1 (stereo not given),"inconclusive [rising, partial curve]",–
CCC(C)NC(=O)c1c(F)c(F)c(F)c(F)c1F (stereo not given),"inconclusive [rising, single point]",–
CC1=C(C(=O)OCc2ccc3c(c2)OCO3)C(c2ccc(Cl)cc2)NC(=O)N1 (stereo not given),"inconclusive [rising, single point]",–
O=C(Nc1ccccc1)C1=C(O)CC(c2ccc(Cl)cc2)N2CCN=C12 (stereo not given),active: 17.8 µM,–
Cc1nn(C)cc1CN(C)C(=O)c1cc2nc(-c3ccco3)cc(C(F)(F)F)n2n1,"inconclusive [rising, single point]",–
Cc1nc2ccc(S(=O)(=O)Nc3ccccc3C)cc2s1,active: 15.8 µM,–
Cc1ccc(S(=O)(=O)N2CN(Cc3ccco3)c3nc4ccccc4nc32)cc1,"inconclusive [rising, single point]",–
CN(C)c1ccc(/C=N\Nc2ccccn2)cc1,–,inactive: -0.342%
O=S(=O)(c1cccs1)N1CN(C2CCCCC2)c2nc3ccccc3nc21,"inconclusive [rising, single point]",–
CC(C)(C)c1cc(NCc2ccccn2)n2ncc(-c3ccccc3)c2n1,–,inactive: 2.17%
COc1ccc(C(C)=O)cc1CSc1nnnn1-c1ccc(O)cc1,"inconclusive [rising, single point]",–
C=C(C)COc1ccc2c(CC)cc(=O)oc2c1,"inconclusive [rising, partial curve]",–
COC(=O)CN(c1ccccn1)S(=O)(=O)c1ccccc1,–,inactive: -8.1%
Cc1ccc(S(=O)(=O)N2CCN(S(=O)(=O)c3ccc(C)cc3)C2)cc1,"inconclusive [rising, single point]",–
C=CCN(CC=C)S(=O)(=O)c1ccc(NC(=S)NC(=O)c2ccco2)cc1,–,inactive: -3.65%
COCCNCCCCSc1ccc(Cl)cc1,"inconclusive [rising, single point]",–
CCOc1ccc(/C=N/NC(=O)c2ccoc2C)cc1OC,–,inactive: -28.8%
O=C(CSc1nc2ccccc2o1)N1CCN(S(=O)(=O)c2ccc3ccccc3c2)CC1,"inconclusive [rising, partial curve]",–
